These results are taken from patent US20240207302A1, “ANTIVIRAL COMPOUNDS, METHODS FOR THE MANUFACTURING OF COMPOUNDS, ANTIVIRAL PHARMACEUTICAL COMPOSITION, USE OF THE COMPOUNDS AND METHOD FOR THE ORAL TREATMENT OF CORONAVIRUS INFECTION AND RELATED DISEASES THEREOF” (priority 2021, published 2024).

For this assay, the target named is SARS-COV-2 RNA polymerase (nsp12, nsp7 and nsp8) (Severe acute respiratory syndrome coronavirus 2, UniProt P0DTD1). Kind of assay: SARS-COV-2 RNA polymerase cell-free assay (pyrophosphate luminescence). It counts as biochemical.

Structures are written as SMILES.

Regarding `O=P(O)(O)OP(=O)(O)OP(=O)(O)OC[C@H]1O[C@@H](n2cnc3c(NCc4ccco4)ncnc32)C(O)C1O` (stereo partly shown) [MB-717, kinetin-ribose 5'-triphosphate], the “IC50 relative to GS-443902” value is reported as 3 fold.
